Data taken from patent US8648074B2, “Substituted octahydropyrrolo[1,2-a]pyrazine sulfonamides as calcium channel blockers” (AbbVie Inc., priority 2011, dated 2014).

Target: human Cav2.2 (Homo sapiens, UniProt Q00975)
Experiment: In vitro assessment of calcium channel activity using FLIPR (Ca2+ influx in IMR32 cells)
Format: cell-based
Settings: IMR32 cells endogenously expressing human Cav2.2; Calcium 4 dye, 60 minute pre-incubation, 2 μM nifedipine, depolarized with 80 mM KCl; average of at least two runs unless marked *
Experimental: The IMR32 cells were maintained in MEM media containing 10% (v/v) FBS, 1% (v/v) antibiotic/antimitotic, 1% (v/v) sodium pyruvate and 1% (v/v) MEM NEAA. Following dissociation in 0.05% (v/v) trypsin/EDTA, cells were seeded into black 1×96-well plates (Corning Cellbind) at a density of 1−1.2×10^5 cells/well and incubated in the maintenance media above for 48 hours at 37° C. Immediately prior to performing the assay the media was removed and cells were loaded for 1.5 hours with 1× Calcium 4 dye prepared in HBSS (137 mM NaCl, 5.4 mM KCl, 0.25 mM Na2HPO4, 0.44 mM KH2PO4, 1.3 mM CaCl2, 1 mM MgSO4, 4.2 mM NaHCO3) containing HEPES pH 7.4 at room temperature. After dye loading and a subsequent 60 minute pre-incubation with compounds (full log dilutions from 10 μM to 0.1 nM) in the presence of 1.3 mM CaCl2 and 2 μM nifedipine to block endogenous L-type channels, the external Ca^2+ concentration was increased to 5 mM CaCl2 and the cells concomitantly depolarized with 80 mM KCl to assay channel activity. To determine the IC50 values, the percent inhibition of the compound at each concentration was determined relative to the activity in the absence of inhibitor, and data was fitted using non-linear regression sigmoidal dose response curve analysis with GraphPad Prism®. Unless otherwise indicated (*), the reported values are average values from at least two runs (i.e., n≧2).

| Compound | IC50 |
| --- | --- |
| Cc1cc(C)c(S(=O)(=O)N2CCN3C[C@H](Oc4cnc(C5CC5)cn4)C[C@H]3C2)c(C)c1 [Example 135, (7R,8aS)-7-[(5-cyclopropylpyrazin-2-yl)oxy]-2-(mesitylsulfonyl)-octahydropyrrolo[1,2-a]pyrazine] | 1.75 µM |
| O=S(=O)(c1cccc(C(F)(F)F)c1)N1CCN2C[C@H](Oc3cccc(Br)n3)C[C@H]2C1 [Example 91, (7R,8aS)-7-[(6-bromopyridin-2-yl)oxy]-2-{[3-(trifluoromethyl)phenyl]-sulfonyl}octahydropyaolo[1,2-a]pyrazine] | 2.69 µM |
| O=S(=O)(c1cccc(C(F)(F)F)c1)N1CCN2C[C@@H](Oc3ccc(-n4ccnc4)cc3)C[C@H]2C1 [Example 43, (7S,8aS)-7-[4-(1H-imidazol-1-yl)phenoxy]-2-{[3-(trifluoromethyl)phenyl]-sulfonyl}octahydropyrrolo[1,2-a]pyrazine] | 1.09 µM |
| O=S(=O)(c1cccc(Cl)c1Cl)N1CCN2C[C@H](Oc3cnc(C4CC4)cn3)C[C@H]2C1 [Example 149, (7R,8aS)-7-[(5-cyclopropylpyrazin-2-yl)oxy]-2-[(2,3-dichlorophenyl)-sulfonyl]octahydropyrrolo[1,2-a]pyrazine] | 0.43 µM |
| O=C1CN(S(=O)(=O)c2cccc(C(F)(F)F)c2)C[C@@H]2C[C@@H](Oc3cnc(C4CC4)cn3)CN12 [Example 220, (7R,8aS)-7-[(5-cyclopropylpyrazin-2-yl)oxy]-2-{[3-(trifluoromethyl)-phenyl]sulfonyl}hexahydropyrrolo[1,2-a]pyrazin-4(1H)-one] | 0.66 µM |
| Cc1cc(C)cc(S(=O)(=O)N2CCN3C[C@H](Oc4cnc(C5CC5)cn4)C[C@H]3C2)c1 [Example 127, (7R,8aS)-7-[(5-cyclopropylpyrazin-2-yl)oxy]-2-[(3,5-dimethylphenyl)-sulfonyl]octahydropyrrolo[1,2-a]pyrazine] | 1.19 µM |
| Cc1cnc(O[C@@H]2C[C@H]3CN(S(=O)(=O)c4cccc(C(F)(F)F)c4)CCN3C2)cn1 [Example 80, (7R,8aS)-7-[(5-methylpyrazin-2-yl)oxy]-2-{[3-(trifluoromethyl)phenyl]-sulfonyl}octahydropyrrolo[1,2-a]pyrazine] | 2.99 µM |
| O=S(=O)(c1cccc(N2CCCCC2)n1)N1CCN2C[C@H](Oc3cnc(C4CC4)cn3)C[C@H]2C1 [Example 60, (7R,8aS)-7-[(5-cyclopropylpyrazin-2-yl)oxy]-2-{[6-(piperidin-1-yl)pyridin-2-yl]sulfonyl}octahydropyrrolo[1,2-a]pyrazine] | 0.48 µM |
| O=C(N[C@H]1C[C@H]2CN(S(=O)(=O)c3ccc(C(F)(F)F)cc3)CCN2C1)c1ccc(F)c(F)c1 [Example 14, 3,4-difluoro-N-[(7S,8aS)-2-{[4-(trifluoromethyl)phenyl]sulfonyl}octahydropyrrolo[1,2-a]pyrazin-7-yl]benzamide] | 1.93 µM |
| CC(C)c1cnc(O[C@@H]2C[C@H]3CN(S(=O)(=O)c4cccc(C(F)(F)F)n4)CCN3C2)cn1 [Example 205, (7R,8aS)-7-[(5-isopropylpyrazin-2-yl)oxy]-2-{[6-(trifluoromethyl)pyridin-2-yl]sulfonyl}octahydropyrrolo[1,2-a]pyrazine] | 0.28 µM |
| N#Cc1cccc(S(=O)(=O)N2CCN3C[C@H](Oc4cnc(C5CC5)cn4)C[C@H]3C2)c1 [Example 159, 3-{[(7R,8aS)-7-[(5-cyclopropylpyrazin-2-yl)oxy]hexahydropyrrolo[1,2-a]-pyrazin-2(1H)-yl]sulfonyl}benzonitrile] | 4.68 µM |
| O=C(N[C@H]1C[C@H]2CN(S(=O)(=O)c3ccc(C(F)(F)F)cc3)CCN2C1)c1ccc(Cl)cc1 [Example 6, 4-chloro-N-[(7S,8aS)-2-{[4-(trifluoromethyl)phenyl]sulfonyl}octahydropyrrolo[1,2-a]pyrazin-7-yl]benzamide] | 1.6 µM |
| O=S(=O)(c1ccc(C(F)(F)F)cc1)N1CCN2C[C@H](Oc3nccc(C4CC4)n3)C[C@H]2C1 [Example 47, (7R,8aS)-7-[(4-cyclopropylpyrimidin-2-yl)oxy]-2-{[4-(trifluoromethyl)-phenyl]sulfonyl}octahydropyrrolo[1,2-a]pyrazine] | 2.17 µM |
| O=C1[C@H](Oc2cnc(C3CC3)cn2)C[C@H]2CN(S(=O)(=O)c3cccc(C(F)(F)F)c3)CCN12 [Example 211, (7R,8aS)-7-[(5-cyclopropylpyrazin-2-yl)oxy]-2-{[3-(trifluoromethyl)-phenyl]sulfonyl}hexahydropyrrolo[1,2-a]pyrazin-6(2H)-one] | 1.56 µM |
| O=S(=O)(c1ccc(F)cc1)N1CCN2C[C@H](Oc3cnc(C4CC4)cn3)C[C@H]2C1 [Example 143, (7R,8aS)-7-[(5-cyclopropylpyrazin-2-yl)oxy]-2-[(4-fluorophenyl)-sulfonyl]octahydropyrrolo[1,2-a]pyrazine] | 2.84 µM |
| O=S(=O)(c1cc(F)c(F)c(F)c1)N1CCN2C[C@H](Oc3cnc(C4CC4)cn3)C[C@H]2C1 [Example 119, (7R,8aS)-7-[(5-cyclopropylpyrazin-2-yl)oxy]-2-[(3,4,5-trifluorophenyl)-sulfonyl]octahydropyrrolo[1,2-a]pyrazine] | 3.15 µM |
| O=S(=O)(c1cccc(C(F)(F)F)c1)N1CCN2C[C@H](OCc3ccc(OC(F)(F)F)cc3)C[C@H]2C1 [Example 98, (7R,8aS)-7-{[4-(trifluoromethoxy)benzyl]oxy}-2-{[3-(trifluoromethyl)-phenyl]sulfonyl}octahydropyrrolo[1,2-a]pyrazine] | 1.04 µM |
| O=S(=O)(c1cccc(Br)c1)N1CCN2C[C@H](Oc3cnc(C4CC4)cn3)C[C@H]2C1 [Example 137, (7R,8aS)-2-[(3-bromophenyl)sulfonyl]-7-[(5-cyclopropylpyrazin-2-yl)oxy]-octahydropyrrolo[1,2-a]pyrazine] | 0.91 µM |
| CC(C)c1cnc(O[C@@H]2C[C@H]3CN(S(=O)(=O)c4ccc(C(F)(F)F)cc4)CCN3C2)cn1 [Example 162, (7R,8aS)-7-[(5-isopropylpyrazin-2-yl)oxy]-2-{[4-(trifluoromethyl)-phenyl]sulfonyl}octahydropyrrolo[1,2-a]pyrazine] | 1.29 µM |
| O=S(=O)(c1cccc(C(F)(F)F)c1)N1CCN2C[C@H](Oc3ncc(C4CC4)s3)C[C@H]2C1 [Example 94, (7R,8aS)-7-[(5-cyclopropyl-1,3-thiazol-2-yl)oxy]-2-{[3-(trifluoromethyl)-phenyl]sulfonyl}octahydropyrrolo[1,2-a]pyrazine] | 1.44 µM |
| O=C(N[C@H]1C[C@H]2CN(S(=O)(=O)c3ccc(F)cc3C(F)(F)F)CCN2C1)c1ccc(Cl)cc1 [Example 8, 4-chloro-N-[(7S,8aS)-2-{[4-fluoro-2-(trifluoromethyl)phenyl]sulfonyl}-octahydropyrrolo[1,2-a]pyrazin-7-yl]benzamide] | 3.56 µM |
| O=S(=O)(CCC(F)(F)F)N1CCN2C[C@H](Oc3cnc(C4CC4)cn3)C[C@H]2C1 [Example 189, (7R,8aS)-7-[(5-cyclopropylpyrazin-2-yl)oxy]-2-[(3,3,3-trifluoropropyl)-sulfonyl]octahydropyrrolo[1,2-a]pyrazine] | > 30 µM |
| O=C1C(Oc2ccc(C(F)(F)F)cn2)CC2CN(S(=O)(=O)c3cccc(C(F)(F)F)c3)CCN12 (centres unmarked) [Example 217, 2-{[3-(trifluoromethyl)phenyl]sulfonyl}-7-{[5-(trifluoromethyl)pyridin-2-yl]-oxy}hexahydropyrrolo[1,2-a]pyrazin-6(211)-one] | 0.78 µM |
| C=C(C)c1cnc(O[C@@H]2C[C@H]3CN(S(=O)(=O)c4cccc(C(F)(F)F)c4)CCN3C2)cn1 [Example 115, (7R,8aS)-7-{[5-(prop-1-en-2-yl)pyrazin-2-yl]oxy}-2-{[3-(trifluoromethyl)-phenyl]sulfonyl}octahydropyrrolo[1,2-a]pyrazine] | 1.96 µM |
| O=S(=O)(c1ccc(C(F)(F)F)cc1Cl)N1CCN2C[C@H](Oc3cccc(C(F)(F)F)n3)C[C@H]2C1 [Example 20, (7R,8aS)-2-{[2-chloro-4-(trifluoromethyl)phenyl]sulfonyl}-7-{[6-(trifluoromethyl)pyridin-2-yl]oxy}octahydropyrrolo[1,2-a]pyrazine] | 1.56 µM |
| O=S(=O)(c1cncc(Br)c1)N1CCN2C[C@H](Oc3cnc(C4CC4)cn3)C[C@H]2C1 [Example 73, (7R,8aS)-2-[(5-bromopyridin-3-yl)sulfonyl]-7-[(5-cyclopropylpyrazin-2-yl)-oxy]octahydropyrrolo[1,2-a]pyrazine] | 4.68 µM |
| CC(C)(C)c1ccc(O[C@H]2C[C@H]3CN(S(=O)(=O)c4cccc(C(F)(F)F)c4)CCN3C2)cc1 [Example 42, (7S,8aS)-7-(4-tert-butylphenoxy)-2-{[3-(trifluoromethyl)phenyl]-sulfonyl}octahydropyrrolo[1,2-a]pyrazine] | 1.21 µM |
| N#Cc1cc(S(=O)(=O)N2CCN3C[C@H](Oc4cnc(C5CC5)cn4)C[C@H]3C2)ccc1F [Example 181, 5-{[(7R,8aS)-7-[(5-cyclopropylpyrazin-2-yl)oxy]hexahydropyrrolo[1,2-a]-pyrazin-2(1H)-yl]sulfonyl}-2-fluorobenzonitrile] | > 30 µM |
| O=S(=O)(c1ccc(F)c(F)c1F)N1CCN2C[C@H](Oc3cnc(C4CC4)cn3)C[C@H]2C1 [Example 123, (7R,8aS)-7-[(5-cyclopropylpyrazin-2-yl)oxy]-2-[(2,3,4-trifluorophenyl)-sulfonyl]octahydropyrrolo[1,2-a]pyrazine] | 3.13 µM |
